# ± gives the standard deviation of the averaged measurements. Some of the results follow.
# System: PfAP2-LT AP2 domain (GST-tagged)
# Assay: gcPBM binding intensity (ln(normalized median fluorescence intensity)); higher = stronger DNA binding
# In short: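 DNA-binding domains from P. falciparum, fused to GST and produced in E. coli, were put on an Agilent 4 × 180k double-stranded probe array for 1 h in 1× PBS holding 1% milk, 0.2 mg/ml BSA, 0.5% salmon testes DNA and 0.03% Triton X-100. Probes were primer-extended, 36 bp long and drawn from intergenic genomic regions, with negative controls included. After Alexa488 anti-GST antibody detection and a 488 nm scan, binding intensity was set as the highest Masliner-normalised natural-log median intensity across replicate spots of either probe orientation.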
row,Sequence,gcPBM binding intensity (ln)
1,GAGCTTTGGATGAAAGCATGCGATGAATGGATAAAA [TGCATGCA_site786],8.81 ± 0.39
2,AAATTAAAATATATATGTACATATATATATATATAT [XGTACX_site7844],9.45 ± 0.35
3,ATAAAAATAAATAAATGTACATATATATATATATAT [XGTACX_site1277],9.62 ± 0.2
4,TAAATTAAAAAAAAAAACAAAAAAAAAGCAACAAAA [CACACA_negctrl_site1318],8.55 ± 0.61
5,TAAATAGGAAAACCTATACACACTTTAAAAAAAATA [CACACA_site1621],8.65 ± 0.54
6,AACACAAATAAGTATTTGGATTATATTACATTTATA [CACACA_negctrl_site465],8.6 ± 0.51
7,CTGTAAAATGTGATGGTGCATATTAATTTAGTTGTA,8.75 ± 0.35
8,ATTTATTTCAATAAACTTCTTTTCTTTAACAATTAC [CACACA_negctrl_site1222],8.38 ± 0.5
9,TTTGAATTTTTTAACACACACATGTCTGGATATATA [CACACA_site1645],9.35 ± 0.45
10,TTTTCCTTAACACACGTTTATATAAAAAATTAAAAT [XGTACX_negctrl_site115],8.45 ± 0.36
11,GAAAAAAAAAAAAAAAGTACATGTCATAAATTGTAT [XGTACX_site1461],8.74 ± 0.57
12,CAATGTTAATATAATACACACAATATGTATTTGTCT [CACACA_site1162],9.09 ± 0.49
13,ATCCATCTTTTATATAGTACTTTATAATATATATAT [XGTACX_site8064],8.86 ± 0.39
14,TTGTTAATATATATATGTACTTATTTATTTATTTAT [XGTACX_site2274],8.75 ± 0.54
15,TTATAGTATTTATAATGTACAAATATATTTTATTTT [XGTACX_site5015],8.56 ± 0.48
16,TCAAATAGAAAATAAAGTACTTAATTTTTAGGAACA [XGTACX_site1446],8.6 ± 0.61
17,ATATATATATTTATAGTGCATTTATATTAAAATATC [GTGCAC_site9818],8.61 ± 0.45
18,TTGAATATTTAAAAACGTACATAAAATTATTTGATT [XGTACX_site5422],8.45 ± 0.53
19,ATATTTATATTTTTTTGTACATATATAATTTTATAA [XGTACX_site4151],8.59 ± 0.38
20,ATATATATTTATATATGTACATATTAATATATATAT [XGTACX_site1144],8.68 ± 0.39
21,CCATTTATTATTTGGGGTACATTTAATTAATATTTT [XGTACX_site5940],8.78 ± 0.41
22,CTTTATTATAAGATTACACACATGTGTTATAATTTA [CACACA_site3169],8.96 ± 0.45

row,Sequence,gcPBM binding intensity (ln)
1,TTGACCTTAAGAAGGTTGCACTAATCATTCAAAGTT,8.47 ± 0.48
2,TGAAAATTTTAATGAGGAAATAAAATAAATATAATA [GTGCAC_negctrl_site159],8.42 ± 0.57
3,ATAGGCACTTTTTGCACACGTATGAATAACAAAATA [CACACA_site5069],9.21 ± 0.42
4,CCAAAGGGGGTATACTGTACATATAGTGGTTATATA [XGTACX_site1515],9.085 ± 0.035
5,ATTTAAGGGGTGTATGCACACGACTATTCCGTATGA [CACACA_site4738],9.01 ± 0.41
6,AATATTTTAAGGCACACACACAAAAAAAAAAAAAAA [CACACA_site2890],9.3 ± 0.63
7,TAATTTAGTATCTTTACATGCGGGCATTATGTCATA [TGCATGCA_site167],8.74 ± 0.4
8,ACTTGTTTTCAATGTAAAATACAATTTTCATTTATT [CACACA_negctrl_site435],8.66 ± 0.52
9,CCAAAGAAATATAATACACACAAGAATATATTGGAT [CACACA_site6018],9.2 ± 0.41
10,AATGAAAAATGTATCGTTAAAGGGTATCTTAAGGAT [XGTACX_negctrl_site222],8.79 ± 0.39
11,AAGTATTACAACCACACACACACCTATATATTATAT [CACACA_site4158],9.89 ± 0.34
12,AATTTAATATAATGCACACATAAAAAAAAAAAAAAA [CACACA_site123],8.9 ± 0.44
13,AAAAAAAAAAGACACACACACAAATACAAATACATA [CACACA_site6334],10 ± 0.28
14,TTTTAAACAAAAAATTGTACAATTAGTGTATAATCC [XGTACX_site778],8.61 ± 0.45
15,AAAGGAAATTAAAATTGATTACATATATAAAAAAAC [XGTACX_negctrl_site196],8.62 ± 0.45
16,AAATTCACAATGTTTGGTACACATAAAAAAAAAAGA [XGTACX_site7109],8.73 ± 0.42
17,TATTATTATTTTATGGTGCAAAAAAAAAAAAAAAAA,8.16 ± 0.52
18,AAAAATTTTTTTTTTTTTTTAAATAATAAAAATGAA [CACACA_negctrl_site1435],7.8 ± 0.44
19,TTTATATATTTTGTCGTGCACATTTGGAAAATTACA [GTGCAC_site9776],8.69 ± 0.47
20,AACATACGACAATACGCACACATATCTGTACATATT [CACACA_site5115],9.49 ± 0.23
21,CATTATTATTAACATACACACGTGTTATATACCCCC [CACACA_site9365],9.49 ± 0.13
22,TATATATTTATTTATAGTACACTATTTATGAAAACC [XGTACX_site3062],8.51 ± 0.47
